Measured values published in a collection of fitness landscapes (doi:10.1016/j.celrep.2020.107928).
Whole data set: some 81,000 sequences, median “one-hybrid fitness for binding parS DNA” near -0.17, cut for the highest 2% near 0.51. The list shows a part of the results.

B1: Caulobacter ParB omega fusion; a variant is named by its letters at X, in order, B8GW30 (parent)
chain: MESVVVGEPGMSEGRRGLGRGLSALLGEVDAAPAQAPGEQLGGSREAPIEILQRNPDQPRRTFREEDLEDLSNSIREKGVLQPILVRPSPDTAGEYQIVAGERAWRAAQRAGLKTVPIMVRELDDLAVLEIGIIENVQRADLNVLEEALSYKVLMEKFERTQENIAQTIGKSXSHVANXMRLLXLPDEVQSYLVSGELTAXHARAIAAAADPVALAKQIIEGGLSVRETEALARKAPNLSAGKSKGGRPPRVKDTDTQALESDLSSVLGLDVSIDHRGSTGTLTITYATLEQLDDLCNRLTRGI

Variants of: B1
Test: one-hybrid fitness for binding parS DNA (scaled: cognate 1, non-cognate 0); higher = stronger binding
Details: with parS DNA site
In short: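 Fitness here means the log change in variant-to-wild-type read ratio between plasmids sequenced before and after selection. That scale was set so cognate equals 1 and non-cognate equals 0. The selection was a bacterial one-hybrid screen of Caulobacter ParB libraries, four specificity codons randomised, in E. coli USO carrying a HIS3 reporter with the site 19 bp from the promoter, grown 48 hours at 37°C on M9-minus-histidine with 0.1 mM IPTG and 5 mM 3-AT.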

Row | Variant | one-hybrid fitness for binding parS DNA
1 | QPLI | ≤ 0.2
2 | YYQG | ≤ 0.2
3 | TFQG | ≤ 0.2
4 | CYSC | ≤ 0.2
5 | WKNS | ≤ 0.2
6 | LTNT | ≤ 0.2
7 | TSVR | ≤ 0.2
8 | DAMN | ≤ 0.2
9 | AFHG | ≤ 0.2
10 | GTRR | ≤ 0.2
11 | QMYM | ≤ 0.2
12 | YGRV | ≤ 0.2
13 | QTGI | ≤ 0.2
14 | PFCG | ≤ 0.2
15 | DTAW | ≤ 0.2
16 | QPDN | ≤ 0.2
17 | TNPT | ≤ 0.2
18 | QGMR | ≤ 0.2
19 | QLHV | ≤ 0.2
20 | VKTP | ≤ 0.2
21 | KLEG | ≤ 0.2
22 | RRMQ | ≤ 0.2
23 | FTGL | ≤ 0.2
24 | CVAL | ≤ 0.2
25 | QSCM | ≤ 0.2
26 | RWKT | 0.811

Row | Variant | one-hybrid fitness for binding parS DNA
27 | VAFG | ≤ 0.2
28 | WYNA | ≤ 0.2
29 | VDNR | ≤ 0.2
30 | ARCI | ≤ 0.2
31 | PAPR | ≤ 0.2
32 | WDAR | ≤ 0.2
33 | LYTE | ≤ 0.2
34 | AAMD | ≤ 0.2
35 | AAWQ | ≤ 0.2
36 | AGTC | ≤ 0.2
37 | QPRT | ≤ 0.2
38 | GAVC | ≤ 0.2
39 | TVMM | ≤ 0.2
40 | WGYS | ≤ 0.2
41 | EVNA | ≤ 0.2
42 | DYLY | ≤ 0.2
43 | TPER | ≤ 0.2
44 | HRKS | 0.418
45 | DKIS | ≤ 0.2
46 | HHTN | ≤ 0.2
47 | QISN | ≤ 0.2
48 | QCQE | ≤ 0.2
49 | AYFM | ≤ 0.2
50 | SFHY | ≤ 0.2
51 | VDPL | ≤ 0.2
52 | NLNV | ≤ 0.2

Row | Variant | one-hybrid fitness for binding parS DNA
53 | STTG | ≤ 0.2
54 | TQGV | ≤ 0.2
55 | SRIG | ≤ 0.2
56 | SGEL | ≤ 0.2
57 | GKDR | ≤ 0.2
58 | YGSN | ≤ 0.2
59 | YSLD | ≤ 0.2
60 | TNTH | ≤ 0.2
61 | TKLW | ≤ 0.2
62 | YLQF | ≤ 0.2
63 | LSAS | ≤ 0.2
64 | PSES | ≤ 0.2
65 | VYRN | ≤ 0.2
66 | TALF | ≤ 0.2
67 | PTQF | ≤ 0.2
68 | RMEI | ≤ 0.2
69 | ATWG | ≤ 0.2
70 | MNAS | ≤ 0.2
71 | HAQF | ≤ 0.2
72 | MKHG | ≤ 0.2
73 | WGTV | ≤ 0.2
74 | FWSC | ≤ 0.2
75 | QQQS | ≤ 0.2
76 | RCCS | 1.01
77 | ATTS | ≤ 0.2
78 | RGQS | 0.803

Row | Variant | one-hybrid fitness for binding parS DNA
79 | MKIR | ≤ 0.2
80 | TEKL | ≤ 0.2
81 | LQRG | ≤ 0.2
82 | QPAW | ≤ 0.2
83 | DRTS | ≤ 0.2
84 | GLLW | ≤ 0.2
85 | LMNV | ≤ 0.2
86 | NHKG | ≤ 0.2
87 | NGCS | ≤ 0.2
88 | NWHQ | ≤ 0.2
89 | HSYL | ≤ 0.2
90 | PDHK | ≤ 0.2
91 | LTCS | ≤ 0.2
92 | KREF | ≤ 0.2
93 | WSSR | ≤ 0.2
94 | IVMF | ≤ 0.2
95 | CTDV | ≤ 0.2
96 | LKDV | ≤ 0.2
97 | DTMC | ≤ 0.2
98 | HACN | ≤ 0.2
99 | FETN | ≤ 0.2
100 | ANFG | ≤ 0.2
101 | CPPA | ≤ 0.2
102 | DSAV | ≤ 0.2
103 | RPGN | ≤ 0.2
104 | ASAY | ≤ 0.2

Row | Variant | one-hybrid fitness for binding parS DNA
105 | AHHK | ≤ 0.2
106 | VMAE | ≤ 0.2
107 | RLAV | ≤ 0.2
108 | WVLC | ≤ 0.2
109 | VERR | ≤ 0.2
110 | QHPG | ≤ 0.2
111 | PTPF | ≤ 0.2
112 | YHFC | ≤ 0.2
113 | TDYR | ≤ 0.2
114 | ILGT | ≤ 0.2
115 | GGQR | ≤ 0.2
116 | GDRT | ≤ 0.2
117 | RTAP | ≤ 0.2
118 | TDQL | ≤ 0.2
119 | TTHF | ≤ 0.2
120 | PTTR | ≤ 0.2
121 | KALT | ≤ 0.2
122 | NWSN | ≤ 0.2
123 | TRCC | ≤ 0.2
124 | LDFI | ≤ 0.2
125 | VTMY | ≤ 0.2
126 | QKDI | ≤ 0.2
127 | IKMC | ≤ 0.2
128 | YNNG | ≤ 0.2
129 | DTNP | ≤ 0.2
130 | KAIC | ≤ 0.2

Row | Variant | one-hybrid fitness for binding parS DNA
131 | FTHG | ≤ 0.2
132 | TLNA | ≤ 0.2
133 | IINF | ≤ 0.2
134 | IRKN | ≤ 0.2
135 | MALR | ≤ 0.2
136 | LFTK | ≤ 0.2
137 | GAMF | ≤ 0.2
138 | RNYN | 0.235
139 | HTYF | ≤ 0.2
140 | RNVN | ≤ 0.2
141 | HRTM | ≤ 0.2
142 | LPVK | ≤ 0.2
143 | PYSC | ≤ 0.2
144 | DRMF | ≤ 0.2
145 | QMPQ | ≤ 0.2
146 | YAKL | ≤ 0.2
147 | MRAI | ≤ 0.2
148 | SVAD | ≤ 0.2
149 | DSVL | ≤ 0.2
150 | SGSR | ≤ 0.2
151 | RSDS | 0.939
152 | YYDG | ≤ 0.2
153 | SFWL | ≤ 0.2
